{"source": "paper PMC4336329", "about": "(PLoS ONE, 2015)", "note": "Among all 310,000 compounds or so, about 14,000 (4.5%) showed an effect of 50% or more. The effect is printed as a negative number. This is one part of the list.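 Note: peak tail current of the secondary pulse compared with the same well before compound.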", "data": [{"target": "human ether-à-go-go-related gene (hERG) potassium channel (human, UniProt Q12809)", "sequence (Q12809 whole entry, looked up)": "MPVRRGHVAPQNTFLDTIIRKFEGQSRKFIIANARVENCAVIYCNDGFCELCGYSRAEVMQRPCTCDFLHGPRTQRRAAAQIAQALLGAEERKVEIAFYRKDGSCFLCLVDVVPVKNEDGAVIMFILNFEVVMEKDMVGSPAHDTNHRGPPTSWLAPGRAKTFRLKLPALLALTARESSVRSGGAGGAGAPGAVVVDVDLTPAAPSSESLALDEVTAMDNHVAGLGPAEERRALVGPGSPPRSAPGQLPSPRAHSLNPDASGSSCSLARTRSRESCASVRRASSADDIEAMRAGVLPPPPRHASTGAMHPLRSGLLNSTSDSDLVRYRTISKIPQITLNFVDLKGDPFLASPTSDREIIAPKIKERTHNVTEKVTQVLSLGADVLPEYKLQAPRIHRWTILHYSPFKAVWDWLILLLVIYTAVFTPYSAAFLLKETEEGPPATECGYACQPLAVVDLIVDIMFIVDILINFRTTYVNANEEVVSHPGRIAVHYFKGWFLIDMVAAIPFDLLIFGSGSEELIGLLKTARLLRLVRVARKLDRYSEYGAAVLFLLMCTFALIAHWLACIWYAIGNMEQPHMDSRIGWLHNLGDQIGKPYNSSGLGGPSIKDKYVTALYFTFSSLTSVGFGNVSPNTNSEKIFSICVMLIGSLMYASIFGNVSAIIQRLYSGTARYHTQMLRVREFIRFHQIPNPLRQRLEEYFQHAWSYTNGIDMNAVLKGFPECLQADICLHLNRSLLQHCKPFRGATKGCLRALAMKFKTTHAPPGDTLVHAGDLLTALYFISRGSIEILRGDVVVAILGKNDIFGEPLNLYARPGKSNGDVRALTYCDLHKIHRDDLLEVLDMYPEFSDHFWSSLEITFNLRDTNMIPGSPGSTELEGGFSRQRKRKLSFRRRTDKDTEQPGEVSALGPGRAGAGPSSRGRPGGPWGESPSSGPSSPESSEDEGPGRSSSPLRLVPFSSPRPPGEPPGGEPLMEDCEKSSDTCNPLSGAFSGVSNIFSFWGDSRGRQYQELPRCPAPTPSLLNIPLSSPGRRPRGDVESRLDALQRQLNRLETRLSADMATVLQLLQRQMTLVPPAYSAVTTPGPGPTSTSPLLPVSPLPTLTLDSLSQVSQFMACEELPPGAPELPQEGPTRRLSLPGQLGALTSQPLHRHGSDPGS", "assay": "primary screen, population patch clamp on CHO cells stably expressing hERG", "units": {"hERG current change (%, negative = inhibition) at 10uM": "%"}, "values": [{"smiles": "CCOC(=O)C1=C(OCc2ccc(Cl)cc2)C2C=C(C)C=CC2N=C1", "note": "(stereo not shown)", "hERG current change (%, negative = inhibition) at 10uM": -69.1}, {"smiles": "CCOC(=O)CC1=C(C(=O)OCC)C(c2ccc(OC)cc2OC)C(C#N)=C(N)O1", "note": "(stereo not shown)", "hERG current change (%, negative = inhibition) at 10uM": 0.829}, {"smiles": "CC(=O)NCC(=O)N1CCCC(C(=O)c2ccc3c4c(cccc24)CC3)C1", "note": "(stereo not shown)", "hERG current change (%, negative = inhibition) at 10uM": 8.94}, {"smiles": "CCOC(=O)C1CCN(S(=O)(=O)c2cn(C)c(=O)n(C)c2=O)CC1", "hERG current change (%, negative = inhibition) at 10uM": 17.3}, {"smiles": "O=C1OCC=C1NNC(=O)c1cccnc1", "hERG current change (%, negative = inhibition) at 10uM": 25.1}, {"smiles": "Cn1c(Cc2ccc3c(c2)OCO3)nnc1SCC(=O)N1CCc2ccccc2C1", "hERG current change (%, negative = inhibition) at 10uM": -18.1}, {"smiles": "O=C(COC(=O)c1cc[n+]([O-])cc1)Nc1cccc(Cl)c1Cl", "hERG current change (%, negative = inhibition) at 10uM": 18.9}, {"smiles": "CN(Cc1ccccc1)C(=O)[C@@H]1CCCN1S(=O)(=O)c1ccc(Cl)cc1", "hERG current change (%, negative = inhibition) at 10uM": -5.14}, {"smiles": "Fc1ccc(-n2c(Cc3cccs3)n[nH]c2=S)cc1Cl", "hERG current change (%, negative = inhibition) at 10uM": 12.6}, {"smiles": "O=C(CN1CCCN(S(=O)(=O)c2ccc(Br)s2)CC1)Nc1ccc(Cl)cc1", "hERG current change (%, negative = inhibition) at 10uM": -28.7}, {"smiles": "CCOc1ccc(NC(=O)CN(C)S(=O)(=O)c2ccc3c(c2)CCC(=O)N3)cc1", "hERG current change (%, negative = inhibition) at 10uM": -41.3}, {"smiles": "CC(C)(C)OC(=O)NC1CONC1=O", "note": "(stereo not shown)", "hERG current change (%, negative = inhibition) at 10uM": 12.1}, {"smiles": "Cn1cc(SCC(=O)NCc2ccc(F)cc2)c2ccccc21", "hERG current change (%, negative = inhibition) at 10uM": -6.61}, {"smiles": "Cc1occc1-c1nnc(SCC(=O)N2CCCC(C)C2)o1", "note": "(stereo not shown)", "hERG current change (%, negative = inhibition) at 10uM": -8.13}, {"smiles": "Cn1c(=O)c2c(O)c([N+](=O)[O-])c(=O)n(C)c2n(C)c1=O", "hERG current change (%, negative = inhibition) at 10uM": 18.1}, {"smiles": "O=C(COc1nncc2ccccc12)Nc1c(F)c(F)c(F)c(F)c1F", "hERG current change (%, negative = inhibition) at 10uM": 6.16}, {"smiles": "COc1ccc(-c2nc(-c3ccccc3)ncc2S(C)(=O)=O)cc1", "hERG current change (%, negative = inhibition) at 10uM": 13}, {"smiles": "C[C@@H]1CN(Cc2nc(-c3cnccn3)no2)C[C@H](C)O1", "hERG current change (%, negative = inhibition) at 10uM": 25.4}, {"smiles": "CCOc1ccc(OCC)c(NC(=O)c2nnn(CC(=O)Nc3cc(C)cc(C)c3)c2N)c1", "hERG current change (%, negative = inhibition) at 10uM": 17.4}, {"smiles": "COc1ccc(C2CC(c3ccc(OC)cc3OC(C)=O)=NN2C(=O)c2ccccc2)cc1", "note": "(stereo not shown)", "hERG current change (%, negative = inhibition) at 10uM": -20.6}, {"smiles": "CC(O)CC(=O)O", "note": "(stereo not shown)", "hERG current change (%, negative = inhibition) at 10uM": 2.13}, {"smiles": "O=C(NCCNC(=O)c1cc(OCC(F)(F)F)ccc1OCC(F)(F)F)Nc1ccc(Cl)cc1", "hERG current change (%, negative = inhibition) at 10uM": -10.1}, {"smiles": "CC(=O)c1cnc(Nc2nc(C)c3cc(C)c(C)cc3n2)nc1C", "hERG current change (%, negative = inhibition) at 10uM": -0.101}, {"smiles": "CC(=O)N(C(C)=O)c1c(N2CCOCC2)c2ccccc2oc1=O", "hERG current change (%, negative = inhibition) at 10uM": 0.993}, {"smiles": "CC1CCN(S(=O)(=O)c2cccc(-c3nnc(-c4cccnc4)o3)c2)CC1", "hERG current change (%, negative = inhibition) at 10uM": -14.7}, {"smiles": "CCOc1cc(/C=C2\\C(=O)N(c3nc(-c4ccc(Br)cc4)cs3)N=C2c2ccccc2)ccc1O", "hERG current change (%, negative = inhibition) at 10uM": 4.44}, {"smiles": "O=C(N/N=C/c1ccc2c(c1)OCO2)c1ccc(Cn2cc([N+](=O)[O-])cn2)o1", "hERG current change (%, negative = inhibition) at 10uM": -16.7}, {"smiles": "O=[N+]([O-])c1cc(C(F)(F)F)ccc1Cl", "hERG current change (%, negative = inhibition) at 10uM": 22.6}, {"smiles": "O=C(NCC1CCCN1S(=O)(=O)c1cccs1)c1ccccc1F", "note": "(stereo not shown)", "hERG current change (%, negative = inhibition) at 10uM": -2.03}, {"smiles": "NC(=O)c1nn(-c2ccc(Oc3ccccc3)cc2)c(=O)cc1O", "hERG current change (%, negative = inhibition) at 10uM": 12.8}, {"smiles": "Cc1ccc2c(c1)nnn2C1CCN(C(=O)C23CC4CC(CC(C4)C2)C3)CC1", "hERG current change (%, negative = inhibition) at 10uM": 1.11}, {"smiles": "O=C(O)CC12CC3CC(C1)CC(n1ncc(NCc4ccccc4Cl)c(Cl)c1=O)(C3)C2", "hERG current change (%, negative = inhibition) at 10uM": -0.897}, {"smiles": "CCOC(=O)/C(=N/Nc1ccc(Cl)cc1)S(=O)(=O)c1ccc(Cl)cc1", "hERG current change (%, negative = inhibition) at 10uM": 11.4}, {"smiles": "COc1ccccc1NC(=O)CSc1nnc(CNC(=O)c2cccs2)o1", "hERG current change (%, negative = inhibition) at 10uM": 5.28}, {"smiles": "Cc1cccc(NC(=O)CSCC(=O)NCc2cccc(C(F)(F)F)c2)c1", "hERG current change (%, negative = inhibition) at 10uM": 9.77}, {"smiles": "COc1ccc(S(=O)(=O)O/N=C2\\CCSc3ccc(C)cc32)cc1", "hERG current change (%, negative = inhibition) at 10uM": 3.61}, {"smiles": "CSc1ccc(S(=O)(=O)N2CCC(C(=O)NCCN3CCOCC3)CC2)cc1", "hERG current change (%, negative = inhibition) at 10uM": 9.53}, {"smiles": "CN(C)CCN(Cc1ccc(Cl)cc1)c1ccccn1.Cl", "hERG current change (%, negative = inhibition) at 10uM": -74.4}, {"smiles": "Cc1ccc(S(=O)(=O)NC(=O)c2ccc(F)cc2)c(C)c1", "hERG current change (%, negative = inhibition) at 10uM": 10.5}, {"smiles": "Cc1ccc2nsnc2c1S(=O)(=O)N(Cc1ccco1)Cc1cc2cccc(C)c2[nH]c1=O", "hERG current change (%, negative = inhibition) at 10uM": 4.38}, {"smiles": "COc1ccc(-c2c(C#N)c(SCC(=O)c3cc4ccccc4oc3=O)nc(C)c2C(=O)Nc2ccccc2)cc1", "hERG current change (%, negative = inhibition) at 10uM": -4.97}, {"smiles": "CC(C)(C)/C(O)=C(/C#N)c1nc2ccccc2[nH]1", "hERG current change (%, negative = inhibition) at 10uM": -10.9}, {"smiles": "COc1ccc(N2CCN(CCNC(=O)Nc3cc(Cl)ccc3Cl)CC2)cc1", "hERG current change (%, negative = inhibition) at 10uM": 15.6}]}]}
